Measurements taken from the BET-seq Pho4 binding data (Le et al. 2018).
Some of the results follow. Values were computed here from the reads of four pooled replicates and scatter widely.

Target: T1, Pho4 (S. cerevisiae) (UniProt P07270)
T1 sequence: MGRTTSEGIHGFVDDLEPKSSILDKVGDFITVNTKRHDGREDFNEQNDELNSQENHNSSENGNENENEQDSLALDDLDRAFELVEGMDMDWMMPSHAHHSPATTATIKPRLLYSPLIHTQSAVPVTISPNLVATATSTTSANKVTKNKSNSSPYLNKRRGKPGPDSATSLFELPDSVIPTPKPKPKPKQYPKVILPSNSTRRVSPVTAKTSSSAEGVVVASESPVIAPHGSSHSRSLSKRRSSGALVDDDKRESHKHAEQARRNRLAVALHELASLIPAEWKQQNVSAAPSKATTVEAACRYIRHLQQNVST
Assay: relative binding free energy (BET-seq); higher = weaker binding
Details: reference: library average

Sequence	relative binding free energy
TTTCGCACGTGGAGAG	0.07 kcal/mol
GAGGGCACGTGTATGC	-0.12 kcal/mol
TTCTACACGTGTTTGT	-0.03 kcal/mol
ATTGACACGTGTTGAG	-0.08 kcal/mol
TTGTACACGTGACTGT	0.04 kcal/mol
CGTGGCACGTGTAGGG	-0.18 kcal/mol
TGTGACACGTGTGCGA	0.12 kcal/mol
TAAGGCACGTGGAATA	-0.01 kcal/mol
TATTCCACGTGTTATT	-0.04 kcal/mol
CATTTCACGTGGATGT	0.36 kcal/mol
TGTTTCACGTGTTTGA	0.26 kcal/mol
TATAGCACGTGTCAGA	0.14 kcal/mol
TTTAGCACGTGTGGTA	0.03 kcal/mol
AATCACACGTGGGGTG	-0.01 kcal/mol
AGGTTCACGTGGGACT	0.24 kcal/mol
TGGATCACGTGGGCTC	0.12 kcal/mol
AGATGCACGTGATGTA	0.07 kcal/mol
GGGTACACGTGTTCGG	0.06 kcal/mol
TATAACACGTGGTGGG	-0.09 kcal/mol
TATGTCACGTGACGGA	0.08 kcal/mol
TTTGGCACGTGTTTGC	-0.1 kcal/mol
AATACCACGTGGGGGG	-0.19 kcal/mol
GCTGGCACGTGTTCGG	0.01 kcal/mol

Sequence	relative binding free energy
AGTTGCACGTGTTTGC	-0.1 kcal/mol
TAAATCACGTGGAGGC	0.09 kcal/mol
GTGGACACGTGTGTAG	0.04 kcal/mol
TGAATCACGTGGAGAT	0.15 kcal/mol
CGAGGCACGTGTGTGC	-0.1 kcal/mol
CTGCACACGTGTAGGG	0.18 kcal/mol
CATGGCACGTGTGTTA	-0.07 kcal/mol
AAATGCACGTGGTTCT	0.05 kcal/mol
TATGGCACGTGCGGGA	-0.22 kcal/mol
CTGGACACGTGGAGGT	0.01 kcal/mol
GCTTGCACGTGAAGTT	0.33 kcal/mol
GTCTACACGTGTTTTA	0.13 kcal/mol
TTAACCACGTGTTGGT	-0.05 kcal/mol
TGTTGCACGTGTTAGC	0.08 kcal/mol
TTTATCACGTGAACGT	0.28 kcal/mol
GGAATCACGTGGTTAG	0.09 kcal/mol
GGTTTCACGTGTTGGT	0.4 kcal/mol
TATCGCACGTGTTGGA	-0.05 kcal/mol
ATTTGCACGTGCAGAG	0 kcal/mol
TTCGGCACGTGTTACG	-0.07 kcal/mol
ATATCCACGTGATGGG	0.21 kcal/mol
ATGGGCACGTGTGCCG	-0.21 kcal/mol
GCGTGCACGTGGGTAG	-0.15 kcal/mol

Sequence	relative binding free energy
AAGATCACGTGTAGGT	0.04 kcal/mol
GTAGCCACGTGTAGGT	-0.07 kcal/mol
CAGGGCACGTGGGCGG	-0.3 kcal/mol
TAGGTCACGTGGCGTG	-0.02 kcal/mol
AGAGACACGTGGGAAG	-0.09 kcal/mol
TTTGGCACGTGGGCCA	-0.24 kcal/mol
TGATTCACGTGCTCGG	0.24 kcal/mol
GCTTACACGTGGGGAA	0.16 kcal/mol
TGTAGCACGTGAGATT	0.22 kcal/mol
GCTTGCACGTGGTTTT	0.04 kcal/mol
TTTGTCACGTGGTCAT	-0.01 kcal/mol
TAGGTCACGTGTTCGA	0.03 kcal/mol
TAGTGCACGTGGGGTA	-0.17 kcal/mol
TATTACACGTGTGTTT	-0.01 kcal/mol
ATATACACGTGTTTTT	-0.07 kcal/mol
GGCGGCACGTGGTTGG	-0.01 kcal/mol
GGAAACACGTGTTTTT	0.07 kcal/mol
TGGGGCACGTGGGTCC	-0.21 kcal/mol
CTTAGCACGTGTGTAG	-0.19 kcal/mol
TGTATCACGTGTAGAG	0.16 kcal/mol
ATATACACGTGGTAGT	-0.13 kcal/mol
AGGGACACGTGTGACT	0.29 kcal/mol
CATTTCACGTGAAGGT	0.24 kcal/mol

Sequence	relative binding free energy
TGGGGCACGTGCACGT	-0.19 kcal/mol
GGTTCCACGTGATGGT	0.1 kcal/mol
ACGTGCACGTGGTTAA	-0.07 kcal/mol
TGTACCACGTGGTTTG	-0.06 kcal/mol
TTGGTCACGTGAATCG	0.28 kcal/mol
GTAGGCACGTGGTCAG	-0.16 kcal/mol
TTGCGCACGTGAGTGG	0.05 kcal/mol
TGAAGCACGTGTTGAA	-0.04 kcal/mol
GTCTGCACGTGGGTAG	-0.07 kcal/mol
TTAAACACGTGATGTG	0.09 kcal/mol
GAGTTCACGTGGATAG	0.27 kcal/mol
AAGAGCACGTGGGGCA	-0.16 kcal/mol
TTCGGCACGTGGCAGT	-0.08 kcal/mol
TGGAACACGTGGTACG	0.01 kcal/mol
GAAATCACGTGTCTGG	0.27 kcal/mol
TGGGGCACGTGAAAGA	0.08 kcal/mol
AGAGGCACGTGGAAAG	0.03 kcal/mol
AGGCGCACGTGTTGGT	-0.05 kcal/mol
TGAACCACGTGGGGTT	-0.11 kcal/mol
GAGAGCACGTGGTGGA	0.05 kcal/mol
GTTGACACGTGTGAGA	0.1 kcal/mol
AGGGTCACGTGAGTCT	0.33 kcal/mol
TACTTCACGTGTGATT	0.37 kcal/mol

Sequence	relative binding free energy
GGGTTCACGTGAGGGT	0.47 kcal/mol
CGCGTCACGTGTTAGT	0.14 kcal/mol
TATATCACGTGTGCGT	0.17 kcal/mol
GTGTCCACGTGTATTT	0.09 kcal/mol
AGTTACACGTGTCTTT	0.21 kcal/mol
ATTGACACGTGTCGTG	-0.08 kcal/mol
GGCGACACGTGCGGTT	0.11 kcal/mol
GGAGGCACGTGCGATG	-0.13 kcal/mol
TAGATCACGTGTAGTA	0.17 kcal/mol
AAGCTCACGTGTTTGT	0.34 kcal/mol
TTGTCCACGTGAGTTG	0.31 kcal/mol
GGTTTCACGTGCTAGG	0.27 kcal/mol
GTTTACACGTGTGTCC	0.27 kcal/mol
AATTTCACGTGGTAAA	0.25 kcal/mol
CGTGACACGTGTTTAG	-0.01 kcal/mol
ATGGACACGTGGTGTG	-0.09 kcal/mol
TATTTCACGTGGGATT	0.19 kcal/mol
AGGACCACGTGTGGAG	-0.05 kcal/mol
TACGACACGTGGGAGG	-0.12 kcal/mol
TAGTACACGTGGAAGG	0.13 kcal/mol
CGATTCACGTGGGCTT	0.2 kcal/mol
GGCGGCACGTGGGGAA	-0.08 kcal/mol
GACAGCACGTGTGTAG	0.12 kcal/mol
